According to PMC4336329 (PLoS ONE, 2015):
About 14,000 (4.5%) of roughly 310,000 compounds showed an effect of 50% or more. The effect is printed as a negative number. The list shows a part of the results.

biological target: human ether-à-go-go-related gene (hERG) potassium channel (human, UniProt Q12809); experiment: primary screen, population patch clamp on CHO cells stably expressing hERG
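Further: peak tail current of the secondary pulse compared with the same well before compound.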

Chain of human ether-à-go-go-related gene (hERG) potassium channel (Q12809 whole entry, looked up): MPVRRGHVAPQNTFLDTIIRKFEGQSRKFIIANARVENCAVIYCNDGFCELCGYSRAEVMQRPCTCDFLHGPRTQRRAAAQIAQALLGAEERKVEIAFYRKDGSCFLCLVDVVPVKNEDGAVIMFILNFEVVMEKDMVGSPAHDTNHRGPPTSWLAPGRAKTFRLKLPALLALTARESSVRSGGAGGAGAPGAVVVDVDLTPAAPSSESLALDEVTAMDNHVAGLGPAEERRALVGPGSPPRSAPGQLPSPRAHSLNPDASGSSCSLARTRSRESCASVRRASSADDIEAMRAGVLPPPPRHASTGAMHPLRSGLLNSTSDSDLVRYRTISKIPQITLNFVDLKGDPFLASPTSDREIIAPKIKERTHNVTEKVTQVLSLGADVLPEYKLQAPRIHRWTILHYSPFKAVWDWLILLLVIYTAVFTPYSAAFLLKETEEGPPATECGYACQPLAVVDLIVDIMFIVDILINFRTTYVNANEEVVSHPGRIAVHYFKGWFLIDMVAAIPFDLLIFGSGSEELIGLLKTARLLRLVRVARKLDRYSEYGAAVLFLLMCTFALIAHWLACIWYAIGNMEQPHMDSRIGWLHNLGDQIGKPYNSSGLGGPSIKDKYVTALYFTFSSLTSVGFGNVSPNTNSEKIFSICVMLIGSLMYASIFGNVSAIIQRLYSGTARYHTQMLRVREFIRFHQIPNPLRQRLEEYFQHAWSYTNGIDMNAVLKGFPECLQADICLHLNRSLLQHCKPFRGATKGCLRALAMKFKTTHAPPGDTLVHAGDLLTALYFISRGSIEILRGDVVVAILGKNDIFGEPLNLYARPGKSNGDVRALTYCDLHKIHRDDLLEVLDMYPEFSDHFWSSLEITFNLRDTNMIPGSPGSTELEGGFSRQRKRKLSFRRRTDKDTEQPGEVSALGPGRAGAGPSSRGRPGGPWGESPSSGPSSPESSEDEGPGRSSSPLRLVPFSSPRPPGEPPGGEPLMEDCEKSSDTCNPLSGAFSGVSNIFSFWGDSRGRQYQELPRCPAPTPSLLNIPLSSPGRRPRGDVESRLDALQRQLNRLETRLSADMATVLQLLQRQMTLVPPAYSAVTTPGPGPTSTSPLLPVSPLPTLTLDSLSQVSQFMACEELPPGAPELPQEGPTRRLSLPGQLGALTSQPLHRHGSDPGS

SMILES | hERG current change (%, negative = inhibition) at 10uM [%]
CC(=O)NC(=S)Nc1ccc(S(=O)(=O)N2CCOCC2)cc1 | 19.6
CCOc1cccc2cc(-c3cn4cc(C)ccc4n3)c(=O)oc12 | 17.4
CC(C)c1ccc(C(N)=S)cc1 | 16.6
O=C(CN1CCCN(Cc2ccc(F)cc2Cl)C1=O)NC1CCCCCC1 | -34.3
O=C(Cc1ccccc1)Nn1c(-c2ccccc2)nc2ccccc2c1=O | -7.98
COc1ccc(C(CNC(=O)Cc2ccccc2F)N2CCCCC2)cc1 (stereo not drawn) | 4.86
Cc1ccc(C)n1N1C(=O)/C(=C\c2ccc(Cl)cc2)SC1=S | 6.57
CSc1ccccc1NC(=O)c1onc(C)c1Cl | 12.8
O=C(NCc1ccco1)c1nn2cccnc2c1Cl | -1.19
CCOC(=O)CSc1nnc(CNC(=O)c2ccc(S(=O)(=O)N3CCCCC3)cc2)n1C | 10.2
O=C1c2ccccc2-c2cccc(NS(=O)(=O)c3ccc(C(F)(F)F)cc3)c21 | 10.2
CC(C)CC1(C)NC(=O)NC1=O (stereo not drawn) | -19
CN(N=Nc1ccc([N+](=O)[O-])cc1)c1ccccc1 | 15
COc1ccc(CNC(=O)CCCn2c(=S)[nH]c3cc4c(cc3c2=O)OCO4)cc1 | 12.6
Cc1cccc([N+](=O)[O-])c1NC(=O)CN(Cc1ccccc1)Cc1ccccc1 | -10.7
NC(=O)c1ccc(NC(=O)c2ccc3c(c2)OCO3)cc1 | -8.71
CCN(CC)c1ccc(/C=C2/C(=O)N(c3ccc([N+](=O)[O-])cc3)N=C2N2CCOCC2)cc1 | -4.56
CC(=O)c1cc2c(O)c(O)ccc2o1 | 12.5
Cc1ccc(C(=O)Nc2ccncc2)o1 | 0.524

SMILES | hERG current change (%, negative = inhibition) at 10uM [%]
Cc1ccc(C(=O)COC(=O)c2ccncc2)cc1[N+](=O)[O-] | 22.6
O=C(CN1C(=O)NC2(CCCc3ccccc32)C1=O)NCc1ccco1 (stereo not drawn) | 2.37
O=C(NNC1=NCCCCC1)c1ccccc1 | 9.12
CCCCn1nc2cc(C(=O)NCc3ccccc3OC)ccc2c1OCC | -22.9
C=CCn1c(SCC(=O)NC(C)(C)C)nnc1-c1ccccc1O | -9.87
CC(=O)Oc1cc(OC(C)=O)c2c(=O)c(-c3ccc4c(c3)OCCCO4)c(C)oc2c1 | 10.8
Cc1ccc(-c2nc3ccccc3c(=O)n2CCCN2CCOCC2)cc1 | -10.9
CCOC(=O)N1CCN(C(=O)CCNS(=O)(=O)c2cc(Br)cnc2N)CC1 | 13.7
OCCCn1c(C2CCCN2c2nc(-c3ccc(Cl)cc3)cs2)nc2cc(Cl)c(Cl)cc21 (stereo not drawn) | -21.8
CCCCc1nnc(NC(=O)CSc2nc(C)cc(=O)[nH]2)s1 | -8.93
CCOC(=O)c1c(C)[nH]c(C(=O)O)c1C | 15.1
Cc1ccc(-n2nc3c(c2NC(=O)c2ccco2)CS(=O)C3)c(C)c1 (stereo not drawn) | -18.1
CC1=CC(C)(C)N=C(NC#N)N1 | 3.6
NS(=O)(=O)c1ccc(CCNC(=O)c2cc(-c3ccco3)nc3ccccc23)cc1 | -58.3
CN(Cc1c(F)cccc1Cl)C(=O)CNC(=O)c1cccs1 | -5.95
CCCCOc1ccc(C2(C)NC(=O)NC2=O)cc1 (stereo not drawn) | -3.1
Cc1cc(C(C)(C)C)cc(C)c1CCNC(=O)c1ccc[n+]([O-])c1 | -31.1
S=c1[nH]nc(Nc2ccccc2Cl)s1 | 11.5
CC(C)c1nc(SCC(=O)Nc2c[nH]c(=O)[nH]c2=O)c2cnn(-c3ccccc3)c2n1 | 20.9

SMILES | hERG current change (%, negative = inhibition) at 10uM [%]
COc1ccc(C(=O)Nc2cccc(-c3ccc4nncn4n3)c2)cc1OC | 8.84
COc1ccccc1C(=O)COC(=O)C(CCSC)NC(=O)COc1ccccc1 (stereo not drawn) | -8.95
CCOC(=O)c1ccc(CSc2n[nH]c(C)n2)o1 | 3.96
CCOCCCNC(=O)c1cc(Sc2ccc(F)cc2)nc2ccccc12 | -12.4
O=C1N[C@@H](Cc2ccccc2)C(=O)N2[C@H]1C[C@]1(Br)c3ccccc3N(S(=O)(=O)c3ccccc3)[C@H]21 | -8.32
COc1ccc(C(=O)C2CCCN(C(=O)CCc3scnc3C)C2)c(C)c1 (stereo not drawn) | -21.5
Cc1cccc(C)c1NC(=O)CNC(=O)CCCc1c[nH]c2ccccc12 | -34.5
Cc1ccc(-c2ccc(CCC(=O)O)n2NC(=O)c2cccs2)cc1 | -6.83
CN(C(=O)c1sc2nc(N3CCCC3)c3c(c2c1N)CC(C)(C)OC3)c1ccccc1 | -6.85
CCCCC(C)C(OC(=O)CC(CC(=O)O)C(=O)O)C(CC(C)CC(O)CCCCC(O)CC(O)C(C)N)OC(=O)CC(CC(=O)O)C(=O)O (stereo not drawn) | 9.03
Cc1ccc(Cn2nnc3c(=O)[nH]c(C4CCN(S(=O)(=O)c5cc(C)ccc5C)CC4)nc32)cc1 | 13
CCCc1cc(C(=O)OC)c(NC(=O)CCCC(=O)O)s1 | 26.5
COCCn1c(SCC(=O)Nc2cc(C)on2)nc2c(c1=O)SCC2 | -5.05
COc1ccc(OC)c(S(=O)(=O)N2CCCC(C(=O)NCc3cccnc3)C2)c1 (stereo not drawn) | -5.43
CN(C)C(=O)c1nc(C#N)c(N(C)C)o1 | 14.4
Cc1ccccc1S(=O)(=O)Cc1ccc(C(=O)NCCN(CC(C)C)CC(C)C)o1 | -43.6
COc1cc(NC(=O)c2ccc(C)cc2C)ccc1NC(=O)c1cccs1 | 8.21
CCOc1ccccc1OCC(=O)Nc1ccc(Cl)cc1Cl | 9.65
O=C(CCN1C(=O)c2ccccc2C1=O)N1CCC(c2ccccc2)C1 (stereo not drawn) | -43
